Measured values as given in the supplement of paper PMC12217912.
This is one part of the list. The full chains were built here from the parent and the listed change. Values near 0.05 are background.

B1: TEV protease; numbered along this chain (parent)
chain: MGESLFKGPRDYNPISSSICHLTNESDGHTTSLYGIGFGPFIITNKHLFRRNNGTLVVQSLHGVFKVKDTTTLQQHLVDGRDMIIIRMPKDFPPFPQKLKFREPQREERICLVTTNFQTKSMSSMVSDTSCTFPSGDGIFWKHWIQTKDGQCGSPLVSTRDGFIVGIHSASNFTNTNNYFTSVPKNFMELLTNQEAQQWVSGWRLNADSVLWGGHKVFMVKPEEPFQPVKEATQL

Variants of: B1
Experiment: raw area under fraction-flipped curve 0-4 h after induction (AUC4h, not background-subtracted), DNA-recorder readout of cleavage of the substrate (dimensionless); higher = more cleavage of the substrate by the protease variant
Settings: temperature: 34 °C; time window: 0-4 h after rhamnose induction
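Further: Bxb1 expression induced with 0.2% (w/v) L-rhamnose at OD600 near 0.5, cultures sampled hourly, flipped fraction per protease–substrate barcode pair counted by paired-end Illumina sequencing.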

Variant	area with substrate ENLYFQD	area with substrate ENLYFQG	area with substrate ENLYFQM	area with substrate ENLYFQN	area with substrate ENLYFQS	area with substrate ENLYFQT	area with substrate ENLYFQY	area with substrate ENLYFQE	area with substrate ENLYFQH	area with substrate ENLYFQI	area with substrate ENLYFQL	area with substrate ENLYFQP	area with substrate ENLYFQR	area with substrate ENLYFQV	area with substrate ENLYFQW	area with substrate ENLYFQF	area with substrate ENLYFQK	area with substrate ENLYFQQ
MGESLFKGPRDYNPISSSICHLTNESDGHTTSLYGIGFGPFIITNKHLFRRNNGTLVVQSLHGVFKVKDTTTLQQQLVDGRDMIIIRMPKDFPPFPQKLKFREPQREERICLVTTNFQTKSMSSMVSDTSCTFPSGDGIFWKHWIQTKDGQCGSPLVSTRDGFIVGIHSASNFTNTNNYFTSVPKNFMELLTNQEAQQWVSGWRLNADSVLWGGHKVFMVKPEEPFQPVKEATQL [H76Q]	0.0675	0.0983	0.0841	0.0777	0.0984	0.0704	0.0805											
MGESLFKGGRDYNPISSSICHLTNESDGHTTSLYGIGFGPFIITNKHLFRRNNGTLVVQSLHGVFKVKDTTTLQQHLVDGRDMIIIRMPKDFPPFPQKLKFREPQREERICLVTTNFQTKSMSSMVSDTSCTFPSGDGIFWKHWIQTKDGQCGSPLVSTRDGFIVGIHSASNFTNTNNYFTSVPKNFMELLTNQEAQQWVSGWRLNADSVLWGGHKVFMVKPEEPFQPVKEATQL [P9G]	0.0752	0.0912	0.0703	0.0837	0.0985	0.0659	0.0732	0.0749	0.0711	0.0679	0.0642	0.0628	0.0645	0.0611	0.062			
MGESLFKGPRDYNPISSSICHLTNESDGHTTSLYGIGFGPFIITNKHLFRRNNGTLVVQSLHGVFKVKDTTTLQQHLVDGRDMIIERMPKDFPPFPQKLKFREPQREERICLVTTNFQTKSMSSMVSDTSCTFPSGDGIFWKHWIQTKDGQCGSPLVSTRDGFIVGIHSASNFTNTNNYFTSVPKNFMELLTNQEAQQWVSGWRLNADSVLWGGHKVFMVKPEEPFQPVKEATQL [I86E]	0.0394	0.0395			0.0373	0.0343			0.0395	0.0334	0.0468		0.0407	0.0438		0.0274	0.0493	0.0129
MGESLFKGPRDYNPISSSICHLTNESDGHTTSLYGIGFGPFIITNKHLFRRNNGTLVVQSLHGVFKVKDTTTLQQHLVDGRDMIIIRMPKDFPPFPQKLKFREPQRKERICLVTTNFQTKSMSSMVSDTSCTFPSGDGIFWKHWIQTKDGQCGSPLVSTRDGFIVGIHSASNFTNTNNYFTSVPKNFMELLTNQEAQQWVSGWRLNADSVLWGGHKVFMVKPEEPFQPVKEATQL [E107K]	0.0727	0.12		0.0806	0.103		0.0747		0.0893	0.0636	0.0527		0.0648	0.072	0.0642	0.0785		0.105
MGESLFKGPRDYNPISSSICHLTNESDGHTTSLYGIGFGPFIITNKHLFRRNNGTLVVQSLHGVFKVKDTTTLQQHLVDGRDMIIIRMPKDFPPFPQKLKFREPQREERICLVTTNFQTKSMSSMVSDTSCTFPSGDGIFWKHWIQTKDGQCGSPLVSTRDGFIVGIHSASNFTNTNNYFTSVPKNFMELLTNQEAQQWVSGWRLNADSVLWGGHKVFMVKPREPFQPVKEATQL [E223R]	0.0691	0.0951	0.0789		0.0929	0.0546				0.0543	0.0718		0.0678	0.0611	0.0746			
MGESLFKGPRDYNPISSSICHLTNESDGHTTSLYGIGFGPFIITNKHLFRRNNGTLVVQSLHGVFKVKDTTTLQQHLVDGRDMIIIRMPKDFPPFPQKLKFREPQREERICLVTTNFQTKSMSSMVSDTSCTFPSGDGIFWKHWYQTKDGQCGSPLVSTRDGFIVGIHSASNFTNTNNYFTSVPKNFMELLTNQEAQQWVSGWRLNADSVLWGGHKVFMVKPEEPFQPVKEATQL [I145Y]	0.0624		0.0921	0.0532	0.0725	0.064	0.0569	0.0691	0.0652	0.0441	0.0553	0.0524	0.0538	0.0557			0.0658	
MGESLFKGPRDYNPISSSICHLTNESDGHTTSLYGIGFGPFIITNKHLFRRNNGTLVVQSLHGVFKVKDTTTLQQHLVDGRDMIIIRMPKDFPPFPQKLKFREPQREERICLVTTNFQTKSHSSMVSDTSCTFPSGDGIFWKHWIQTKDGQCGSPLVSTRDGFIVGIHSASNFTNTNNYFTSVPKNFMELLTNQEAQQWVSGWRLNADSVLWGGHKVFMVKPEEPFQPVKEATQL [M122H]	0.0721	0.0925	0.0785	0.0845	0.106	0.066	0.0638		0.0766	0.0621	0.0633	0.049	0.0486		0.0607	0.0866	0.0643	
MGESLFKGPRDYNPISSSICHLTNESDGHTTSLYGIGFGPFIITNKHLFRRNNGTLVVQSLHGVFKVKDTTTLQQHLVDGRDMIIIRMPKDFPPFPQELKFREPQREERICLVTTNFQTKSMSSMVSDTSCTFPSGDGIFWKHWIQTKDGQCGSPLVSTRDGFIVGIHSASNFTNTNNYFTSVPKNFMELLTNQEAQQWVSGWRLNADSVLWGGHKVFMVKPEEPFQPVKEATQL [K98E]	0.0679	0.113			0.114						0.0678		0.0588				0.0615	
MGESLFKGPRDYNPISSSICHLTNESDGHTTSLYGIGFGPFIITNKHLFRRNNGTLVVQSLHGVFKVKDTTTLQQHLVDGRDMIIIRMPKDFPPFPQKLKFREPQREERICLVTTNFQTKSMSSMVSDTCCTFPSGDGIFWKHWIQTKDGQCGSPLVSTRDGFIVGIHSASNFTNTNNYFTSVPKNFMELLTNQEAQQWVSGWRLNADSVLWGGHKVFMVKPEEPFQPVKEATQL [S130C]					0.122	0.0873	0.112			0.067	0.0699					0.115		0.104
MGESLFKGPRDYNPISSSICHLTNESDGHTTSLYGIGFGPFIITNKHLFRRNNGTLVVQSLHGVFKVKDTTTLQQHLVDGRDMIIIRMPKDFPPFPQKLKFREPQREERICLVTTNFQTKSMSSMVSDTGCTFPSGDGIFWKHWIQTKDGQCGSPLVSTRDGFIVGIHSASNFTNTNNYFTSVPKNFMELLTNQEAQQWVSGWRLNADSVLWGGHKVFMVKPEEPFQPVKEATQL [S130G]	0.0807	0.0825	0.0945		0.103		0.0863		0.0837	0.0734	0.0572		0.0511	0.0583			0.0687	0.0872
MGESLFKGPRDYNPISSSICHLTNESDGHTTSLYGIGFGPFIITNKHLFRRNNGTLVVQSLHGVFKVKDTTTLQQHLVDGRDMIIIRMPKDFPPFPQKLKFREPQREERICLVTTNFQTKSMSSMVSDTSCTQPSGDGIFWKHWIQTKDGQCGSPLVSTRDGFIVGIHSASNFTNTNNYFTSVPKNFMELLTNQEAQQWVSGWRLNADSVLWGGHKVFMVKPEEPFQPVKEATQL [F133Q]		0.118	0.0991	0.0695	0.118	0.0712			0.0818	0.0137	0.0733			0.0516	0.0748	0.0735		0.0752
MGESLFKGPRDYNPISSSICHLTNESDGHTTSLYGIGFGPFIITNKHLFRRNNGTLVVQSLHGVFKVKDTTTLQQHLVDGRDMIIIRMPKDFPPFPQKLKFREPQREERICLVTTNFQTKSMSSMVSDTSCTFPSGDGIFWKHWIQTKDGQCGSPLVSTRDGFIVGIHSASNFTNTNNYFTSVPKNFMELLTNQEAQQWVSGWRLNADSVLWGGHKVFMVKPEEPFQPVTEATQL [K230T]	0.0875	0.0973	0.0769	0.0647	0.103	0.102	0.0798		0.0747	0.0519	0.0656	0.0542	0.0765		0.0606		0.084	
MGESLFKGPRDYNPISSSICHLTNESDGHTTSLYGIGFGPFIITNKHLFRRNNGTLVVQSLHGVFKVKDTTTLQQHLVDGRDMIIIRMPKDFPPFPQKLKFREPQREERICLVTTNFQTKSMSSMVYDTSCTFPSGDGIFWKHWIQTKDGQCGSPLVSTRDGFIVGIHSASNFTNTNNYFTSVPKNFMELLTNQEAQQWVSGWRLNADSVLWGGHKVFMVKPEEPFQPVKEATQL [S127Y]	0.0622	0.0897	0.104	0.0822	0.114	0.072				0.0609	0.0681	0.0573		0.0635	0.0724			
MGESLFKGPRDYNPISSSICHLTNESDGHTTSLYGIGFGPFIITNKHLFRRNNGTLVVQSLHGVFKVKDTTTLQQHLVDGRDMIIIRMPKDFPPFPQKLKFREPQREERICLVTTNFQTKSMSSMVSDTSCTFPSGDGIFWKHWIQTKDGQCGSYLVSTRDGFIVGIHSASNFTNTNNYFTSVPKNFMELLTNQEAQQWVSGWRLNADSVLWGGHKVFMVKPEEPFQPVKEATQL [P155Y]	0.0424	0.0492	0.0569	0.0566	0.0533	0.0554	0.0321			0.0574			0.0392	0.048	0.0478		0.0413	
MGESLFKGPRDYNPISSSICHLTNESDGHTTSLYGIGFGPFIITNKHLFRRNNGTLVVQSLHGVFKVKDTTTLQQHLVDGRDMIIIRMPKDFPPFPQKLKFREPQREERICLVTTNFQTKSMSSMVSDTSCTFPSGDGFFWKHWIQTKDGQCGSPLVSTRDGFIVGIHSASNFTNTNNYFTSVPKNFMELLTNQEAQQWVSGWRLNADSVLWGGHKVFMVKPEEPFQPVKEATQL [I139F]	0.0694	0.0839	0.0882	0.0779	0.115	0.0697	0.0666	0.0753		0.0489	0.0748		0.0606				0.0199	
MGESLFKRPRDYNPISSSICHLTNESDGHTTSLYGIGFGPFIITNKHLFRRNNGTLVVQSLHGVFKVKDTTTLQQHLVDGRDMIIIRMPKDFPPFPQKLKFREPQREERICLVTTNFQTKSMSSMVSDTSCTFPSGDGIFWKHWIQTKDGQCGSPLVSTRDGFIVGIHSASNFTNTNNYFTSVPKNFMELLTNQEAQQWVSGWRLNADSVLWGGHKVFMVKPEEPFQPVKEATQL [G8R]	0.0754		0.0692		0.115	0.0523										0.0653		
MGESLFKGPRDYNPISSSICHLTNESDGHTTSLYGIGFGPFIITNKHLFRRNNGTLVVQSLHGVFKVKDTTTLQQHLVDGRDMIIIRMPKDFPPFPQKLKFREPQREERICLVTTNFQTKSMSSMVSDTSCTFPSGDGIAWKHWIQTKDGQCGSPLVSTRDGFIVGIHSASNFTNTNNYFTSVPKNFMELLTNQEAQQWVSGWRLNADSVLWGGHKVFMVKPEEPFQPVKEATQL [F140A]	0.0617	0.0758		0.0236	0.061		0.0409						0.0633		0.0591			
MGESLFKGPRDYNPISSLICHLTNESDGHTTSLYGIGFGPFIITNKHLFRRNNGTLVVQSLHGVFKVKDTTTLQQHLVDGRDMIIIRMPKDFPPFPQKLKFREPQREERICLVTTNFQTKSMSSMVSDTSCTFPSGDGIFWKHWIQTKDGQCGSPLVSTRDGFIVGIHSASNFTNTNNYFTSVPKNFMELLTNQEAQQWVSGWRLNADSVLWGGHKVFMVKPEEPFQPVKEATQL [S18L]	0.0654	0.0805	0.0708	0.0744	0.0936	0.0602	0.0817		0.0705	0.0572		0.0474	0.0542	0.0391	0.0662		0.057	0.0673
MGESLFKGPRDYNPISSSICHLTNESDGHTTSLYGIGFGPFIITNKHLFRRNNGTLVVQSLHGVFKVKDTTTLQQHLVDGRDMIIIRMPKDFPPFPQKLKFREPQREERICLVTTNFQTKSMSSMVSDTSCTFPSGDGIFWKHWIQTKDGQCGSPLVSTRDGFIVGIHSASNFTNTNNYPTSVPKNFMELLTNQEAQQWVSGWRLNADSVLWGGHKVFMVKPEEPFQPVKEATQL [F180P]		0.0499		0.0858	0.056	0.0522				0.0632				0.0328	0.0478	0.0468		
